Some of the results follow.
Assays:
Experiment in all cases: glycan array binding signal (z-score within array); higher = stronger binding
Details in all cases: glycan notation: IUPAC condensed, linker removed
[1] = target: Fuc(a1-3)[Gal(b1-4)]GlcNAc(b1-3)Gal(b1-4)[Fuc(a1-3)]GlcNAc(b1-3)Gal(b1-4)[Fuc(a1-3)]GlcNAc
How it was run: (§1)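 Glycan array binding is given as a within-array Z-score, which can be read as non-binding when negative. The arrays, 3228 of them, came from the Consortium for Functional Glycomics database and were retained only where the protein sequence was available. Z-scores were averaged across arrays of the same protein sequence at different concentrations or buffers and across linkers.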

[2] = target: Fuc(a1-3)[Gal(b1-4)]GlcNAc(b1-3)GalNAc
How it was run: as §1

[3] = target: Fuc(a1-3)[Gal(b1-4)]GlcNAc(b1-3)[Fuc(a1-2)]Gal(b1-4)Glc
How it was run: as §1

[4] = target: Fuc(a1-3)[Gal(b1-4)]GlcNAc(b1-3)[Fuc(a1-3)[Gal(b1-4)]GlcNAc(b1-6)]Gal(b1-4)Glc
How it was run: as §1

[5] = target: Fuc(a1-3)[Gal(b1-4)]GlcNAc(b1-4)Gal(b1-4)[Fuc(a1-3)]GlcNAc
How it was run: as §1

[6] = target: Fuc(a1-3)[Gal(b1-4)]GlcNAc(b1-4)Gal(b1-4)[Fuc(a1-3)]GlcNAc(b1-4)Gal(b1-4)[Fuc(a1-3)]GlcNAc
How it was run: as §1

[7] = target: Fuc(a1-3)[Gal(b1-4)]GlcNAc(b1-6)GalNAc
How it was run: as §1

[8] = target: Fuc(a1-3)[Gal(b1-4)]GlcNAc(b1-6)[Gal(b1-3)GlcNAc(b1-3)]Gal(b1-4)Glc
How it was run: as §1

[9] = target: Fuc(a1-3)[Gal(b1-4)]GlcNAc6S
How it was run: as §1

[10] = target: Fuc(a1-3)[Gal3S(b1-4)]Glc
How it was run: as §1

[11] = target: Fuc(a1-3)[Gal3S(b1-4)]GlcNAc
How it was run: as §1

[12] = target: Fuc(a1-3)[Gal3S(b1-4)]GlcNAc(b1-3)Gal
How it was run: as §1

[13] = target: Fuc(a1-3)[Gal3S(b1-4)]GlcNAc(b1-3)Gal(b1-4)Glc
How it was run: as §1

[14] = target: Fuc(a1-3)[Gal3S(b1-4)]GlcNAc6S
How it was run: as §1

[15] = target: Fuc(a1-3)[Gal3S(b1-4)]GlcNAc6S(b1-3)Gal(b1-4)Glc
How it was run: as §1

[16] = target: Fuc(a1-3)[Gal6S(b1-4)]GlcNAc(b1-3)Gal(b1-4)Glc
How it was run: as §1

[17] = target: Fuc(a1-3)[GalNAc(b1-4)]GlcNAc
How it was run: as §1

[18] = target: Fuc(a1-3)[GalNAc(b1-4)]GlcNAc6S
How it was run: as §1

Fuc(a1-4)GlcNAc = target: Fuc(a1-4)GlcNAc
How it was run: as §1

Fuc(a1-6)GlcNAc = target: Fuc(a1-6)GlcNAc
How it was run: as §1

Fuc(b1-3)GlcNAc = target: Fuc(b1-3)GlcNAc
How it was run: as §1

Gal(a1-2)Gal = target: Gal(a1-2)Gal
How it was run: as §1

Gal(a1-3)Gal = target: Gal(a1-3)Gal
How it was run: as §1

Gal(a1-3)Gal(b1-3)GlcNAc = target: Gal(a1-3)Gal(b1-3)GlcNAc
How it was run: as §1

[19] = target: Gal(a1-3)Gal(b1-3)GlcNAc(b1-2)Man
How it was run: as §1

[20] = target: Gal(a1-3)Gal(b1-3)GlcNAc(b1-2)Man(a1-3)[Gal(a1-3)Gal(b1-3)GlcNAc(b1-2)Man(a1-6)]Man(b1-4)GlcNAc(b1-4)GlcNAc
How it was run: as §1

[21] = target: Gal(a1-3)Gal(b1-3)GlcNAc(b1-3)GalNAc
How it was run: as §1

[22] = target: Gal(a1-3)Gal(b1-3)GlcNAc(b1-6)GalNAc
How it was run: as §1

[23] = target: Gal(a1-3)Gal(b1-3)[Fuc(a1-4)]GlcNAc(b1-2)Man(a1-3)[Gal(a1-3)Gal(b1-3)[Fuc(a1-4)]GlcNAc(b1-2)Man(a1-6)]Man(b1-4)GlcNAc(b1-4)GlcNAc
How it was run: as §1

Gal(a1-3)Gal(b1-4)Glc = target: Gal(a1-3)Gal(b1-4)Glc
How it was run: as §1

Gal(a1-3)Gal(b1-4)GlcNAc = target: Gal(a1-3)Gal(b1-4)GlcNAc
How it was run: as §1

[24] = target: Gal(a1-3)Gal(b1-4)GlcNAc(b1-2)Man
How it was run: as §1

[25] = target: Gal(a1-3)Gal(b1-4)GlcNAc(b1-2)Man(a1-3)[Gal(a1-3)Gal(b1-4)GlcNAc(b1-2)Man(a1-6)]Man(b1-4)GlcNAc(b1-4)GlcNAc
How it was run: as §1

[26] = target: Gal(a1-3)Gal(b1-4)GlcNAc(b1-3)GalNAc
How it was run: as §1

[27] = target: Gal(a1-3)Gal(b1-4)GlcNAc(b1-6)GalNAc
How it was run: as §1

[28] = target: Gal(a1-3)Gal(b1-4)[Fuc(a1-3)]GlcNAc
How it was run: as §1

[29] = target: Gal(a1-3)Gal(b1-4)[Fuc(a1-3)]GlcNAc(b1-2)Man(a1-3)[Gal(a1-3)Gal(b1-4)[Fuc(a1-3)]GlcNAc(b1-2)Man(a1-6)]Man(b1-4)GlcNAc(b1-4)GlcNAc
How it was run: as §1

Gal(a1-3)GalNAc = target: Gal(a1-3)GalNAc
How it was run: as §1

B1: PNA (Arachis hypogaea), P02872 (protein)
chain: MKPFCVFLTFFLLLAASSKKVDSAETVSFNFNSFSEGNPAINFQGDVTVLSNGNIQLTNLNKVNSVGRVLYAMPVRIWSSATGNVASFLTSFSFEMKDIKDYDPADGIIFFIAPEDTQIPAGSIGGGTLGVSDTKGAGHFVGVEFDTYSNSEYNDPPTDHVGIDVNSVDSVKTVPWNSVSGAVVKVTVIYDSSTKTLSVAVTNDNGDITTIAQVVDLKAKLPERVKFGFSASGSLGGRQIHLIRSWSFTSTLITTTRRSIDNNEKKIMNMASA
For B1, the “glycan array binding signal (z-score)” value [1] was -0.202, the “glycan array binding signal (z-score)” value [2] was -0.139 and the “glycan array binding signal (z-score)” value [3] was -0.195. The “glycan array binding signal (z-score)” value [4] was -0.195, the “glycan array binding signal (z-score)” value [5] was -0.095 and the “glycan array binding signal (z-score)” value [6] was -0.121. The “glycan array binding signal (z-score)” value [7] was 0.024, the “glycan array binding signal (z-score)” value [8] was -0.083 and the “glycan array binding signal (z-score)” value [9] was -0.158. The “glycan array binding signal (z-score)” value [10] was -0.195, the “glycan array binding signal (z-score)” value [11] was -0.16 and the “glycan array binding signal (z-score)” value [12] was -0.195. The “glycan array binding signal (z-score)” value [13] was -0.195, the “glycan array binding signal (z-score)” value [14] was -0.117 and the “glycan array binding signal (z-score)” value [15] was -0.195. For the same binder, the “glycan array binding signal (z-score)” value [16] was -0.195, the “glycan array binding signal (z-score)” value [17] was -0.127 and the “glycan array binding signal (z-score)” value [18] was -0.239. For the same binder, the “glycan array binding signal (z-score)” value (Fuc(a1-4)GlcNAc) was -0.191, the “glycan array binding signal (z-score)” value (Fuc(a1-6)GlcNAc) was -0.195 and the “glycan array binding signal (z-score)” value (Fuc(b1-3)GlcNAc) was -0.175. For the same binder, the “glycan array binding signal (z-score)” value (Gal(a1-2)Gal) was -0.169, the “glycan array binding signal (z-score)” value (Gal(a1-3)Gal) was -0.253 and the “glycan array binding signal (z-score)” value (Gal(a1-3)Gal(b1-3)GlcNAc) was -0.185. For the same binder, the “glycan array binding signal (z-score)” value [19] was -0.354, the “glycan array binding signal (z-score)” value [20] was -0.115 and the “glycan array binding signal (z-score)” value [21] was -0.229. For the same binder, the “glycan array binding signal (z-score)” value [22] was -0.229, the “glycan array binding signal (z-score)” value [23] was -0.197 and the “glycan array binding signal (z-score)” value (Gal(a1-3)Gal(b1-4)Glc) was -0.147. The “glycan array binding signal (z-score)” value (Gal(a1-3)Gal(b1-4)GlcNAc) was -0.178, the “glycan array binding signal (z-score)” value [24] was -0.115 and the “glycan array binding signal (z-score)” value [25] was -0.117. The “glycan array binding signal (z-score)” value [26] was -0.181, the “glycan array binding signal (z-score)” value [27] was -0.22 and the “glycan array binding signal (z-score)” value [28] was -0.091. For the same binder, the “glycan array binding signal (z-score)” value [29] was -0.213 and the “glycan array binding signal (z-score)” value (Gal(a1-3)GalNAc) was -0.112.
